Test results: article PMC4336329 (PLoS ONE, 2015)
Hit rate of the full screen: of about 310,000 compounds, about 14,000 (4.5%) showed an effect of 50% or more. Effects have a minus sign here. Some of the results follow.

Each molecule was assayed against human ether-à-go-go-related gene (hERG) potassium channel (human, UniProt Q12809) (assay: primary screen, population patch clamp on CHO cells stably expressing hERG).
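Further: peak tail current of the secondary pulse compared with the same well before compound.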

human ether-à-go-go-related gene (hERG) potassium channel, sequence (Q12809 whole entry, looked up): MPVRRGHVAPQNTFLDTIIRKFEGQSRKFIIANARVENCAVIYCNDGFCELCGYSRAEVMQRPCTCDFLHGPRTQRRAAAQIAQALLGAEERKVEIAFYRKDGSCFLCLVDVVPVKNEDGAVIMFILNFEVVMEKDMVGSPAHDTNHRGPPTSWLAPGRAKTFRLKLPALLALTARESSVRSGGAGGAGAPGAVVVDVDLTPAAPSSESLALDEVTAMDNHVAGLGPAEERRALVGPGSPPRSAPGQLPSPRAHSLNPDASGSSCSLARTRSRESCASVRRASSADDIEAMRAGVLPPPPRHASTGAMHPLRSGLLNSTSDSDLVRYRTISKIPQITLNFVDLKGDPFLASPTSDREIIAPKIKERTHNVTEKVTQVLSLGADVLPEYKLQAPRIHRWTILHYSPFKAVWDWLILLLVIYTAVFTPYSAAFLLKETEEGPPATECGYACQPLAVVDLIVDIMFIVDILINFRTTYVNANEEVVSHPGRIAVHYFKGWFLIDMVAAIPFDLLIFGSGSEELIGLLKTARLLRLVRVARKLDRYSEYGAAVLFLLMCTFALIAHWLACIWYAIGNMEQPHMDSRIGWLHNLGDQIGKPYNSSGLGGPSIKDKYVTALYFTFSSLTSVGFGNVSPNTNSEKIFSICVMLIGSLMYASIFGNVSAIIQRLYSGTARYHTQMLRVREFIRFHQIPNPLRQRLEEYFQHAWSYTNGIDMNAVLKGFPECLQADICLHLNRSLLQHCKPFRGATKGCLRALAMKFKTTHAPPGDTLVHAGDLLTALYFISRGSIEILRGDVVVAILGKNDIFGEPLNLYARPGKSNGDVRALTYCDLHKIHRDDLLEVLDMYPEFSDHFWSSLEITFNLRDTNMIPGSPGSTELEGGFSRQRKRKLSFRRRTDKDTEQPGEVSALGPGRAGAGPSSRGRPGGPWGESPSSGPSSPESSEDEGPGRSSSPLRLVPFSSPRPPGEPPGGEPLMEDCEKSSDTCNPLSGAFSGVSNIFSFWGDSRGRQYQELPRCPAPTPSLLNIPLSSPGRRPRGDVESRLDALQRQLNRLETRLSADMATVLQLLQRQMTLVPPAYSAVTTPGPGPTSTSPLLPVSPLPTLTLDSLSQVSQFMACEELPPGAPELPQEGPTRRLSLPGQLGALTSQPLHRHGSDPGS

Row | Compound | hERG current change (%, negative = inhibition) at 10uM [%]
1 | COc1cccc2[nH]c3c(N4CCCC(C)C4)ncnc3c12 (stereo not shown) | 14.8
2 | O=C(NC(=S)NCc1nc2ccccc2[nH]1)c1ccccc1F | -15.1
3 | N#Cc1c(N)oc(-c2ccccc2)c1-c1ccccc1 | -5.02
4 | NC(=O)c1ccccc1N(Cc1ccccc1)S(=O)(=O)c1ccccc1 | 10.7
5 | COc1ccc(CN2C(=O)C(Cc3ccccc3)Nc3ncnc(N4CCOCC4)c32)cc1.O=C(O)C(F)(F)F (stereo not shown) | -15.6
6 | Cc1ncc([N+](=O)[O-])n1CC(=O)Nc1ccc(F)cc1 | 1.56
7 | O=C(O)C12CC3CC(C1)CC(n1ncc(N4CCN(c5ccccc5)CC4)c(Cl)c1=O)(C3)C2 | 14.2
8 | CCCOc1ccc2c3c(c(=O)oc2c1OCCC)CCC3 | 7.44
9 | CCN1CCN(C(=O)c2cc(COc3ccc4ncccc4c3)on2)CC1 | 9.12
10 | Cc1ccc(N=Nc2ccc(O)c(P(=O)(c3ccccc3)c3ccccc3)c2)cc1 | -42.7
11 | CCOC(=O)CN1C(=O)C(CC)Oc2ccc(Cl)cc21 (stereo not shown) | -7.7
12 | Cc1cccc(NC(=O)CN(C)S(=O)(=O)c2ccccc2)n1 | -3.97
13 | O=C(O)c1cc(Br)ccn1 | 8.43
14 | CCOC(=O)C1CCN(C(=O)c2ccc3snnc3c2)CC1 | -15.6
15 | Fc1ccccc1NC(=S)NCc1ccc2c(c1)OCO2 | -4.33
16 | CC12CC(NC(=O)N1c1cccc(C(=O)N3CCN(c4ccccn4)CC3)c1)c1ccccc1O2 (stereo not shown) | -14.3
17 | Cc1ccc(CN2C(=O)CCC2C(=O)NCc2ccccc2Cl)cc1 (stereo not shown) | -18.6
18 | S=c1nc2ccccc2c2nc(-c3ccccc3)[nH]n12 | 23.9
19 | O=C(Nc1cccc(F)c1)OC(CN1CCCCC1)C(F)(F)F (stereo not shown) | -5.72
20 | COc1ccccc1NC(=O)N1CCc2[nH]c3ccc(F)cc3c2C1 | 3.61
21 | COC(=O)C1(Cc2ccc(O)c(CC3OC3(C)C)c2)OC(=O)C(O)=C1c1ccc(O)cc1 (stereo not shown) | 8.92
22 | Cc1ccc(S(=O)(=O)c2nc(Nc3nccs3)sc2Cl)cc1 | 11.6
23 | CC1=NC(=O)C(N=Nc2cccc(C(=O)O)c2)N1c1ccccc1 (stereo not shown) | 27.7

Row | Compound | hERG current change (%, negative = inhibition) at 10uM [%]
24 | c1ccc(-c2cnc(CSc3ncnc4sccc34)o2)cc1 | 7.1
25 | N#CCN(CC#N)C(=O)C1c2ccccc2Oc2ccccc21 | 17.8
26 | COc1cccc(NC(=O)c2ccc(S(=O)(=O)NCc3cccnc3)cc2)c1 | -0.62
27 | COc1ccc(NCC(=O)N/N=C/c2cc([N+](=O)[O-])ccc2N2CCCC2)cc1 | -7.82
28 | CCC(C)(C)n1nnnc1CN(Cc1cccs1)Cc1cc2cc(OC)ccc2[nH]c1=O | -5.35
29 | O=C(CN1C(=O)CSC1=O)N1CCCC(Nc2ccc(F)cc2)C1 (stereo not shown) | 14.4
30 | O=C1NC(c2ccccc2)=C(c2ccc3ccccc3n2)C(c2ccncc2)N1 (stereo not shown) | -36.6
31 | COc1ccc(C/C(N)=N/OC(=O)COc2ccccc2C)cc1 | -1.6
32 | Cc1ccc(-c2nnc(SCC(=O)NC3CC3)n2N)cc1 | 8.22
33 | O=c1c2ccccc2nc(-c2ccco2)n1Cc1ccccc1 | -48
34 | Cl.O.O=C(CCN1CCOCC1)Nc1ccc2c(c1)N(C(=O)CN1CCOCC1)c1ccccc1CC2 | 1.75
35 | Cc1cccc(CCN(CC(=O)NC(C)(C)C)C(=O)c2csnn2)c1 | 19.9
36 | COc1ccccc1NS(=O)(=O)c1cc(NC(=S)Nc2cc(C)cc(C)c2)ccc1Cl | 12.1
37 | CCOc1ccc(Br)cc1S(=O)(=O)NCc1ccc(S(N)(=O)=O)cc1 | -1.3
38 | COC(=O)c1cc(S(=O)(=O)NC2CCCCC2)cn1C | 10.5
39 | Cc1cc(F)ccc1NCC(=O)Nc1ccccc1Br | -3.3
40 | Cc1cccc(NC2=C(Cl)C(=O)OC2OC(=O)c2ccco2)c1 (stereo not shown) | -7.49
41 | O=C1OCc2ccc(NC(=O)C3CC3)cc21 | 2.07
42 | CSc1nc2ccc(NS(=O)(=O)c3ccc([N+](=O)[O-])cc3)cc2s1 | -5.24
43 | CC(C)(CO)CN1CCC(n2nccc2NC(=O)C2CCCC2)CC1 | 11.4
44 | COc1ccc2c(ccn2S(=O)(=O)c2ccccc2)c1 | 11.4
45 | CCOc1ccc(C(=O)NCc2ccncc2)cc1OCC | 2.62
46 | COc1ccccc1C(=O)Nc1ccnn1C1CCN(Cc2cnn(C)c2C)CC1 | -63.7

Row | Compound | hERG current change (%, negative = inhibition) at 10uM [%]
47 | COc1cccc(NC(=O)c2nc(S(C)(=O)=O)ncc2Cl)c1 | -33.7
48 | Cc1cccc(N(CC(=O)NC2CCCC2)C(=O)CS(=O)CC(=O)Nc2ccc3c(c2)OCO3)c1 (stereo not shown) | -5.43
49 | COc1cccc(C2N(c3cccc(Cl)c3)C(=O)C3CCCN32)c1 (stereo not shown) | -0.999
50 | Cc1nn(C)c(N)c1[N+](=O)[O-] | 20.5
51 | COc1cc(C(=O)NC2CCCCCCC2)cc(OC)c1OC | -11.7
52 | CC(C)(C)S(=O)(=O)c1ccc(S(=O)(=O)C(C)(C)C)s1 | 22.8
53 | COc1cccc(CC2(CO)CCN(C(=O)NC3CCCCC3)CC2)c1 | -13.2
54 | COC(=O)C1=C(c2ccc3ccccc3c2)C[C@@H]2CC[C@H]1N2C(=O)NCCCOC(C)C | -7.68
55 | CCN(CC(=O)Nc1c(F)cccc1F)C(=O)CCNC(=O)c1ccccc1OC | -9.56
56 | CSCC[C@H](NC(=O)Nc1cccc(Br)c1)C(=O)O | -0.789
57 | CCOC(=O)c1cc(-c2ccco2)nn1-c1ccc(C)cc1 | 1.45
58 | Cn1nnc(-c2ccc(OCc3ccccc3F)cc2)n1 | 6.69
59 | O=C(N1CCC(n2nc(-c3ccccc3)oc2=O)CC1)C1(c2ccccc2)CC1 | -17.5
60 | COCC(=O)Nc1nc2ccc(S(C)(=O)=O)cc2s1 | 5.83
61 | O=c1[nH]c(/C=C\c2cccc(F)c2)nc(O)c1[N+](=O)[O-] | 18.9
62 | O=C(CNC(=O)c1cccc(F)c1)OCCOc1cccc(Cl)c1 | -45.6
63 | O=C(Nc1ccc(O)cc1)/C(=C/c1ccco1)NC(=O)c1ccccc1 | 16.2
64 | COc1ccc(CC(=O)NCc2ccc3c(c2)OCO3)cc1 | 4.71
65 | CCc1ccc(Nc2ccc(C(=O)O)cc2[N+](=O)[O-])cc1 | 7.03
66 | CCN(CC)c1ncnc2ccc(Br)cc12 | -16
67 | CCc1ccccc1NC(=O)COc1ccc2oc(-c3ccc(OC)cc3)cc(=O)c2c1 | 5.29
68 | O=C(Nc1ccc(Cl)cn1)C1CCN(S(=O)(=O)c2cccs2)CC1 | -30.3
69 | Cc1ccc(-c2cccc(C(=O)NCc3ccccc3)n2)c2ccccc12 | 17.8

Row | Compound | hERG current change (%, negative = inhibition) at 10uM [%]
70 | CC(=O)c1sc(NC(=O)c2ccccc2F)nc1C | -9.34
71 | CCOC(=O)CNc1c(-c2ccc(OC)cc2)nc2ccc(Cl)cn12 | -73.5
72 | CCOC(=O)c1sc(NC(=O)c2ccc(CC)s2)nc1C | -1.03
73 | CN1CCN(S(=O)(=O)c2ccc(CNC(=O)c3ccccc3)s2)CC1 | 23.1
74 | C/C(=C\C(=O)c1ccccc1)NNC(=O)c1ccc(Cl)cc1 | 6.68
75 | CC(C)(C)N(Cc1ccccc1)C(=O)c1ccc(Cl)cc1[N+](=O)[O-] | 16.1
76 | O=C(OCCCCN1C(=O)c2ccccc2C1=O)c1ccc(Br)o1 | -0.77
77 | Oc1ccc(Cc2ccc(Cl)cc2)c(O)c1 | 16.7
78 | N#Cc1cc([N+](=O)[O-])ccc1NCCN1CCOCC1 | -41
79 | Cc1sc2ncnc(N3CCN(Cc4ccccc4)CC3)c2c1-c1ccccc1 | -34.8
80 | CCC1(c2ccc(F)cc2)NC(=O)N(CC(=O)Nc2ccc(S(N)(=O)=O)cc2)C1=O (stereo not shown) | 18.5
81 | O=c1c2ccccc2nc(/C=C/c2ccc3c(c2)OCO3)n1-c1cccc(O)c1 | -7.38
82 | C[N+](C)(C)Cc1ccccc1.[Cl-] | 16.3
83 | CCOc1ccc(-n2c(=O)c3c(C)c(C)sc3n(CC(=O)NCc3ccco3)c2=O)cc1 | 3.17
84 | CCOc1nc(SCCOc2ccc(Cl)cc2Cl)nc(N(C)C)n1 | 4.71
85 | Cc1nn(C(C)C(=O)NCCCN2CCCC2)c(=O)c2nn(-c3ccccc3)c(C)c12 (stereo not shown) | 13.1
86 | CCN1C(=O)c2c(C)nc3ccccc3c2C1=O | -2.96
87 | O=C(O)c1ccccc1Nc1ccnc(Cl)n1 | 8.46
88 | Cl.NOCC(=O)O | 1.9
89 | Oc1c(Br)cc(Br)cc1C=NCc1ccccc1 | 2.98
90 | CCCCN1CCc2c([nH]c3ccc(C)cc23)C1=O | 12.7
91 | CC(C)CN1CCN(Cc2cccn2-c2ccccn2)CC1CCO (stereo not shown) | -55.9
